Test results from paper PMC6919601, “Identification of Plasmodium dipeptidyl aminopeptidase allosteric inhibitors by high throughput screening” (PLoS ONE, 2019).
Among all 110,000 compounds or so, about 230 (0.21%) showed an effect of 50% or more. This is one part of the list.

target: DPAP1 (Plasmodium falciparum, UniProt Q8IIJ9); experiment: primary screen, percent inhibition; read by cleavage of a fluorogenic dipeptide substrate; higher = more effect of the substance; design: species or system P. falciparum D10 trophozoite lysates; single well
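Further: 30 min substrate incubation versus DMSO and 10 µM JCP410 controls.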

Sequence of DPAP1 (Q8IIJ9 whole entry, looked up): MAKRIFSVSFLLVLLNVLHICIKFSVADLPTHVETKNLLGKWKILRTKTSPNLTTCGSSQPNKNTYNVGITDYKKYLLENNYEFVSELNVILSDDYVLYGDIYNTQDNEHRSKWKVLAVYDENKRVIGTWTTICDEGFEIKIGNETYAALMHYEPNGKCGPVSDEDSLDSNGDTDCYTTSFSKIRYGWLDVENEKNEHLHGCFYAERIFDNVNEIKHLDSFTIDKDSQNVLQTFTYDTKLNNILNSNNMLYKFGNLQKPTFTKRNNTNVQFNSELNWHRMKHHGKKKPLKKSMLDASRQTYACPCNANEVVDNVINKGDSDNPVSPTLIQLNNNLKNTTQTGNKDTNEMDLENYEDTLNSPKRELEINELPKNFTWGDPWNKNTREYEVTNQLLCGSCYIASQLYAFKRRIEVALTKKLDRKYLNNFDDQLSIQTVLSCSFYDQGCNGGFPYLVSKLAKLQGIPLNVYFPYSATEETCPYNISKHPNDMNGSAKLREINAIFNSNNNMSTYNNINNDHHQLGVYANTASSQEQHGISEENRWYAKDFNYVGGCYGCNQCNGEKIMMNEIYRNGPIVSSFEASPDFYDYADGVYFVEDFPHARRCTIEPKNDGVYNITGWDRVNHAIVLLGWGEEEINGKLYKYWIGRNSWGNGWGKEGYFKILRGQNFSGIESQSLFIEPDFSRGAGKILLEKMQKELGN

SMILES	% Inhibition @ 10 uM
CC(C)=CCC[C@H](C)CCN1CCN(CCOCCO)CC1	-1.75%
N=C(NC(=O)c1ccccc1Br)Nc1nc2ccccc2o1	-12.2%
CCOc1cc2c(cc1/C=C1/S/C(=N\c3ccccc3)N(CC3CCCO3)C1=O)OCO2 (centres unmarked)	1.1%
CCOc1cc(/C=C2\CCCC(C(=O)C(F)(F)F)=C2O)ccc1O	0.413%
CN1c2ccccc2-c2ccccc2C12C=Cc1ccccc1O2 (centres unmarked)	0.215%
O=C(CCCN1C(=O)c2ccccc2C1=O)Nc1ccc(C(=O)O)cc1	-1.22%
CC(CNC(=O)CCCn1ncn2c(cc3occc32)c1=O)c1ccccc1 (centres unmarked)	-3.79%
Cc1ccc(C2C3=C(O)CC(C)(C)CC3=Nc3ncnn32)cc1 (centres unmarked)	-2.92%
c1ccc(CN2CN(c3nccs3)CN(c3nccs3)C2)cc1	-1.72%
C=CCc1cccc2cc(C(=O)NCCc3c(C)[nH]c4ccc(C)cc34)c(=O)oc12	-2.5%
Cc1ccc(Nc2ncc(F)c(N3CCOCC3)n2)c(C)c1	3.35%
COc1cccc(OC)c1C(=O)NC(C)C12CC3CC(CC(C3)C1)C2 (centres unmarked)	2.03%
Cc1ccc(SC(C)C(=O)Nc2ccc3c(c2)OCCO3)cc1 (centres unmarked)	6.24%
O=C(c1cc2c(s1)-c1ccccc1OC2)N1CCC2(CC1)OCCO2	-4.85%
N#Cc1ccc(NC(=O)c2sc3nc4c(cc3c2N)CCC4)cc1	4.42%
Cc1ccc(C2SCC(=O)N2c2ccc(C)cc2)cc1 (centres unmarked)	2.13%
Cc1ccc(C(=O)Nc2ccc(S(=O)(=O)N3CCC(C)CC3)cc2)cc1Br	0.83%
CCC(C)N1C(=O)S/C(=C/c2cc(Cl)c(O)c(OC)c2)C1=O (centres unmarked)	3.71%
Cc1[nH]c2ccc(C(=O)N3CCN(c4ncccn4)CC3)cc2c1C	-3.02%
O=C(CSC1=NCCS1)NCc1ccco1	6.51%
CC(C)c1ccccc1NC(=O)Cc1cccs1	4.03%
CCOC(=O)c1c(C)[nH]c(C)c1S(=O)(=O)N(C)CC(=O)Nc1nc2ccc(Cl)cc2s1	-0.695%
COc1cc(-c2cc(C(=O)O)c3cc4c(cc3n2)OCCO4)cc(OC)c1OC	3.67%
CCOc1ccc(C(=O)Nc2ccc(CN3CCOCC3)cc2)cc1	-4.82%
Cc1ccc(CNC(=O)Cn2c3c(c(-c4ccccc4Cl)cc2=O)CCC3)cc1	-1.46%

SMILES	% Inhibition @ 10 uM
Clc1ccccc1CN1CCOCC1	-4.14%
COc1ccc(S(=O)(=O)N(C(=O)c2ccccc2)c2ccc3oc(C)c(C(C)=O)c3c2)cc1	-1.16%
O=C1/C(=C/c2ccccc2)N=C(N2CCCCC2)N1c1ccccc1	0.0504%
COc1ccc(-c2cc(C(=O)Nc3c(C)nn(Cc4ccccc4C)c3C)no2)cc1OC	-3.12%
Cc1cc(NC(=O)C(C)Sc2nc(=O)cc(N)n2CCc2ccccc2)no1 (centres unmarked)	16%
CCn1c(=N)n(CC(=O)c2ccc(F)cc2)c2ccccc21	0.206%
O=C(CC(=O)c1ccccc1O)c1cccs1	-8.67%
CC(C)C[C@H](NC(c1ccc(-c2ccc(F)cc2F)cc1)c1nccs1)C(=O)NC1(C#N)CC1 (some centres unmarked)	-1.41%
COc1cc(C(=O)NCCC(=O)NC2CCCCC2)cc(OC)c1OC	-2.26%
Cc1c(C#N)c(N)c(C(=O)c2ccccc2)n1-c1ccc(Br)cc1	2.38%
CC1CCCC(NC(=O)C(Cc2ccccc2)n2cccc2)C1C (centres unmarked)	2.6%
COc1cc2c(cc1OC)C(c1cc(OC)c(OC)cc1[N+](=O)[O-])N(C(C)=O)CC2 (centres unmarked)	4.45%
COCCCn1c(CCC(=O)O)ccc1-c1ccc(Cl)cc1	0.558%
COc1ccc(-c2csc3ncn(CC(=O)NC4CCCCC4)c(=O)c23)cc1OC	5.14%
Cc1ccc(CNC(=O)C2(S(=O)(=O)c3ccc(C)cc3)CC2)cc1	1.76%
CCC(C)NC(=O)C1CCCN(S(=O)(=O)c2c(C)noc2/C=C/c2cccs2)C1 (centres unmarked)	-9.16%
CC1CCN(S(=O)(=O)c2cc(C(=O)O)ccc2Br)CC1	0.827%
CN1CCN(Cc2coc3ccccc3c2=O)CC1	4.81%
CCCN1C(=O)S/C(=C\c2ccc(N3CCOCC3)o2)C1=O	-3.41%
O=C(O)C1C2C=CC(C2)C1C(=O)NCCCc1ccccc1 (centres unmarked)	4.11%
O=C(O)c1cnc2ccc(S(=O)(=O)NC3CCCCNC3=O)cc2c1O (centres unmarked)	1.17%
Cc1cccc(N2C(=O)NC(=O)/C(=C\c3ccco3)C2=O)c1	-1.15%
C=CCOc1ccccc1CNc1cccc(C(=O)O)c1	2.02%
O=C1C(c2ccc(Cl)cc2)N(C2CCCCC2)C(=O)CN1C1CCCCC1 (centres unmarked)	-7.73%
CCCS(=O)(=O)NCc1cn2c(C)csc2n1	0.953%
